Data as given in PMC2946606.
These are yes or no findings as the source states them, for the method shown. In cells and extracts the contact can be indirect. Some results given as binding are weak or reduced against the parent protein; the word gives no strength. For some of these results: Where a sequence is shown, tags or fusion partners need not be part of it.

By UniProt entry, the sequences of proteins in these tests, tags left out. Residues count along the entry.
GST-Med1 fragment aa 740–860 (Q925J9, residues 740-860): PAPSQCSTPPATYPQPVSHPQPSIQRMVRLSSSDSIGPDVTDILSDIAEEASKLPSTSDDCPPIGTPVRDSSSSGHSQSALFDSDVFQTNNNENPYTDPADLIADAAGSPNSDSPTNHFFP
GST-Med1 fragment aa 1370–1470 (Q925J9, residues 1370-1470): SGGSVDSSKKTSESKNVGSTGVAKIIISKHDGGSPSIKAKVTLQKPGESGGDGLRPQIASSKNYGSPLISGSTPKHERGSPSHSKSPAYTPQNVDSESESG
UniProt P37238: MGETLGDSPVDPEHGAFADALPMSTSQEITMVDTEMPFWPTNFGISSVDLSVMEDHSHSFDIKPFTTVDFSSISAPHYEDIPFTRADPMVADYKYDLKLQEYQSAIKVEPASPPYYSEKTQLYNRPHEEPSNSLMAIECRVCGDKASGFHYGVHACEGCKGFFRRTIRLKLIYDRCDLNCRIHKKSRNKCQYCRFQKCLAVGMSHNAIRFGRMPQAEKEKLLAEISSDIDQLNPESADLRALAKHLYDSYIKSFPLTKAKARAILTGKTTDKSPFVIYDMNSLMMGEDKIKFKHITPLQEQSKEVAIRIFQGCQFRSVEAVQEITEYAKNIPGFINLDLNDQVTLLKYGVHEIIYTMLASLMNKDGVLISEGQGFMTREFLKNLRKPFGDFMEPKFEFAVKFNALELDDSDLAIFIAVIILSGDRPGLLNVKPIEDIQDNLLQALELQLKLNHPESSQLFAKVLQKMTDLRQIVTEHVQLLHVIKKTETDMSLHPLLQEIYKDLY
UniProt Q92616: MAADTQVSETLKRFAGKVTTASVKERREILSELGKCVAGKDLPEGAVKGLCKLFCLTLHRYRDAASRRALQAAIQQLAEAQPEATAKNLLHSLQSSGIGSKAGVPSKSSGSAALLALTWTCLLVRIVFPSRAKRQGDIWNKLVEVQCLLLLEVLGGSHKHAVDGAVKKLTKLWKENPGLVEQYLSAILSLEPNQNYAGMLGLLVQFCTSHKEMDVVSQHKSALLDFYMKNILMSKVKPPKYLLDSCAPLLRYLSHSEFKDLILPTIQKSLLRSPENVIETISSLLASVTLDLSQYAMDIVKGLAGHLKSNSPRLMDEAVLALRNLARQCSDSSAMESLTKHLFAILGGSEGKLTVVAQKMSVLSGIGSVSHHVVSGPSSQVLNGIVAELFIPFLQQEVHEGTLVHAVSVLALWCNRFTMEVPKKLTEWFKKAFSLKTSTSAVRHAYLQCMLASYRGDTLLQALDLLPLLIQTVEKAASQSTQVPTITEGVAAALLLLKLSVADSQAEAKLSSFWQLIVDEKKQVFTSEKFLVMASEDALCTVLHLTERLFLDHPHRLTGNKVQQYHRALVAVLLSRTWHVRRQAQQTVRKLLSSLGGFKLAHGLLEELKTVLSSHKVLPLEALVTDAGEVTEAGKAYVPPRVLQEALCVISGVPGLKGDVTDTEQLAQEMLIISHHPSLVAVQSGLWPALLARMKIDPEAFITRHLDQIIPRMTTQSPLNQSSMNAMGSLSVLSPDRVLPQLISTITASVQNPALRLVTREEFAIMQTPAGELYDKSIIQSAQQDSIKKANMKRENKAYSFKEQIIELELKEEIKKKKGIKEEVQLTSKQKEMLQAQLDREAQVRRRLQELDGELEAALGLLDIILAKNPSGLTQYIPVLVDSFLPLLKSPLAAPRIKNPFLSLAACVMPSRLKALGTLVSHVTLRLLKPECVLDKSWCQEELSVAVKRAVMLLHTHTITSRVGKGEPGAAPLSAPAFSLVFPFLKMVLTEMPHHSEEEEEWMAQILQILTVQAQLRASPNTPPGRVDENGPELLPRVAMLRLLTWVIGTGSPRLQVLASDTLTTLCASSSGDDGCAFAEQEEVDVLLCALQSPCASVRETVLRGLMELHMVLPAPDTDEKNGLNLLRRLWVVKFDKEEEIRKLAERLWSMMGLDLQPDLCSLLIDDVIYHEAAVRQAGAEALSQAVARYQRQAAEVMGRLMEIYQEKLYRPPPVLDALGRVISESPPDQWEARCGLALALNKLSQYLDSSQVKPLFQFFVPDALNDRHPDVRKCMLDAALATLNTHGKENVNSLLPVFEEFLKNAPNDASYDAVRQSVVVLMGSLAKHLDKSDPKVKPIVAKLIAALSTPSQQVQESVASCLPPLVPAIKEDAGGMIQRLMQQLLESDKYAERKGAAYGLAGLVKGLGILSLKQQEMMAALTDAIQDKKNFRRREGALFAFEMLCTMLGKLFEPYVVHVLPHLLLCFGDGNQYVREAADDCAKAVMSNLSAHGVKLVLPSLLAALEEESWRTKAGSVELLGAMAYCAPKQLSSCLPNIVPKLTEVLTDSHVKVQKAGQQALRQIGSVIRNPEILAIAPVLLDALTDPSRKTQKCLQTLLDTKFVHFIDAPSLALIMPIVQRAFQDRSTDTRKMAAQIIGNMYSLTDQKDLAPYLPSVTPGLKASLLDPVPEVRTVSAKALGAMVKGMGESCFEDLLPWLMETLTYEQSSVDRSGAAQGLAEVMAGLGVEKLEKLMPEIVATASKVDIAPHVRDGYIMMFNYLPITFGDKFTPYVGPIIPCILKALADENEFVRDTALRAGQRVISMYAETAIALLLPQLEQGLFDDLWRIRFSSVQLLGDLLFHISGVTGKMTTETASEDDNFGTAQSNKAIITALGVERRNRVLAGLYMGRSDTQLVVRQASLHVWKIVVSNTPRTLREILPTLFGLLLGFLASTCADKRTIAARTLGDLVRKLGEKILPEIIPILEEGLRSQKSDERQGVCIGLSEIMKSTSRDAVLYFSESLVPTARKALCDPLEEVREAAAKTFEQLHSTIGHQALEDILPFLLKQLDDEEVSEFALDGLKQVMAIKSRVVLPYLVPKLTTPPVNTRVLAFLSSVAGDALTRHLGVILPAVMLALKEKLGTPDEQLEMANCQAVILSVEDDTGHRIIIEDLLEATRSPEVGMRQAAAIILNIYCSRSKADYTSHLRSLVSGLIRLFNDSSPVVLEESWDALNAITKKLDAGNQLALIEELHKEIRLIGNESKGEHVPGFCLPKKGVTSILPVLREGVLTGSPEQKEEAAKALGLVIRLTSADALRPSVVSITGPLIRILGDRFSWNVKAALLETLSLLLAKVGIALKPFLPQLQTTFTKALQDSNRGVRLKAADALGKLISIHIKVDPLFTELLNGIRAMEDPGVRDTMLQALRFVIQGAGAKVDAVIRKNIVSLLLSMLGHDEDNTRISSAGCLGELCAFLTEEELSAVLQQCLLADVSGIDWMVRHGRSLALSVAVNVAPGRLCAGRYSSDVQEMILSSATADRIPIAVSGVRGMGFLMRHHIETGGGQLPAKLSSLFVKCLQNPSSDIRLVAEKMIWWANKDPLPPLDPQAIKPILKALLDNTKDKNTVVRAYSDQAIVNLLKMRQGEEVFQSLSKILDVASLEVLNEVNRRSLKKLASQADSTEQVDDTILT

How the values were obtained:
Experiment in all cases: pull-down; GST or GST-fusion protein on glutathione sepharose 4B beads, incubated with in vitro translated 35S-methionine PRIC295 or its fragments, 4°C, 2 hours, gentle shaker; washed, SDS-PAGE, autoradiography; nuclear receptors without and with receptor-specific ligand (10 μM to 100 μM); only the target purified
[1] = target: GST-Med1 fragment aa 1370–1470 (UniProt Q925J9)
[2] = target: GST-Med1 fragment aa 740–860 (UniProt Q925J9)
GST-PPARα = target: T1, GST-PPARα (UniProt P23204)
T1 sequence: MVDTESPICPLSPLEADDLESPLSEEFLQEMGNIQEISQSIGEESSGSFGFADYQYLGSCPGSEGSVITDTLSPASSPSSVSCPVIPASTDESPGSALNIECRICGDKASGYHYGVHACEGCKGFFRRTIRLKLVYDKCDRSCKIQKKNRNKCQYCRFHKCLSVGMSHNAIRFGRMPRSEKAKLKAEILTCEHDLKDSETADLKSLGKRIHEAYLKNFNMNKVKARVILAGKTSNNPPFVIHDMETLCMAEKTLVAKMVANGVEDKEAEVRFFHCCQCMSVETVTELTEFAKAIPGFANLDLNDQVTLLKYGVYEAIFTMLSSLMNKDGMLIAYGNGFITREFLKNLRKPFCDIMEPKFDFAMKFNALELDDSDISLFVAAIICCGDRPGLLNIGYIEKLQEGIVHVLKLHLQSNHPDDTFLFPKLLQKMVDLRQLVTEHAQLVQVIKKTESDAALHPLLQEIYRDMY

GST-PPARγ = GST-PPARγ (UniProt P37238)

- binding [1]: no binding
- binding [2]: no binding
- binding (GST-PPARα): binds
- binding (GST-PPARγ): binds
Substance: PRIC295 (PPARα-interacting cofactor 295), full-length, in vitro translated (from UniProt Q92616 1-2671)
